T1: RBFOX1 RRM (Homo sapiens, UniProt Q9NWB1 109-208)
T1 sequence: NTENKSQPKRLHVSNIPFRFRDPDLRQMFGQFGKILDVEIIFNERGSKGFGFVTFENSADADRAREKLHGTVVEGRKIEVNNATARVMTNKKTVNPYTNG

B1: AUGGACU (DNA:RNA)
RNA: GGGAGACCGGAAUUCAGAUUGUCCAUGGACUUUAAAUCCCGUCGUAGCCACCA
DNA 1: CAATCTGAATTCCGGTCTCCC
DNA 2: TGGTGGCTACGACGGGATT
B2: UCACUAU (DNA:RNA)
RNA: B1 RNA with A25U, U26C, G27A, G28C, A29U, C30A
DNA 1: CAATCTGAATTCCGGTCTCCC
DNA 2: TGGTGGCTACGACGGGATT
B3: UGCCUCU (DNA:RNA)
RNA: B1 RNA with A25U, U26G, G27C, G28C, A29U
DNA 1: CAATCTGAATTCCGGTCTCCC
DNA 2: TGGTGGCTACGACGGGATT
B4: CCAGUGC (DNA:RNA)
RNA: B1 RNA with A25C, U26C, G27A, A29U, C30G, U31C
DNA 1: CAATCTGAATTCCGGTCTCCC
DNA 2: TGGTGGCTACGACGGGATT
B5: GGACAGG (DNA:RNA)
RNA: B1 RNA with A25G, U26G, G27A, G28C, C30G, U31G
DNA 1: CAATCTGAATTCCGGTCTCCC
DNA 2: TGGTGGCTACGACGGGATT
B6: GGGAUGG (DNA:RNA)
RNA: B1 RNA with A25G, U26G, G28A, A29U, C30G, U31G
DNA 1: CAATCTGAATTCCGGTCTCCC
DNA 2: TGGTGGCTACGACGGGATT
B7: CGUGUGC (DNA:RNA)
RNA: B1 RNA with A25C, U26G, G27U, A29U, C30G, U31C
DNA 1: CAATCTGAATTCCGGTCTCCC
DNA 2: TGGTGGCTACGACGGGATT
B8: CGUGAAC (DNA:RNA)
RNA: B1 RNA with A25C, U26G, G27U, C30A, U31C
DNA 1: CAATCTGAATTCCGGTCTCCC
DNA 2: TGGTGGCTACGACGGGATT
B9: AGCUGCA (DNA:RNA)
RNA: B1 RNA with U26G, G27C, G28U, A29G, U31A
DNA 1: CAATCTGAATTCCGGTCTCCC
DNA 2: TGGTGGCTACGACGGGATT
B10: AGUCAGC (DNA:RNA)
RNA: B1 RNA with U26G, G27U, G28C, C30G, U31C
DNA 1: CAATCTGAATTCCGGTCTCCC
DNA 2: TGGTGGCTACGACGGGATT
B11: CUAGAGC (DNA:RNA)
RNA: B1 RNA with A25C, G27A, C30G, U31C
DNA 1: CAATCTGAATTCCGGTCTCCC
DNA 2: TGGTGGCTACGACGGGATT
B12: ACCAACC (DNA:RNA)
RNA: B1 RNA with U26C, G27C, G28A, U31C
DNA 1: CAATCTGAATTCCGGTCTCCC
DNA 2: TGGTGGCTACGACGGGATT
B13: UCUGGAC (DNA:RNA)
RNA: B1 RNA with A25U, U26C, G27U, A29G, C30A, U31C
DNA 1: CAATCTGAATTCCGGTCTCCC
DNA 2: TGGTGGCTACGACGGGATT
B14: ACCGAAA (DNA:RNA)
RNA: B1 RNA with U26C, G27C, C30A, U31A
DNA 1: CAATCTGAATTCCGGTCTCCC
DNA 2: TGGTGGCTACGACGGGATT
B15: GCAGCCC (DNA:RNA)
RNA: B1 RNA with A25G, U26C, G27A, A29C, U31C
DNA 1: CAATCTGAATTCCGGTCTCCC
DNA 2: TGGTGGCTACGACGGGATT
B16: AACACAU (DNA:RNA)
RNA: B1 RNA with U26A, G27C, G28A, A29C, C30A
DNA 1: CAATCTGAATTCCGGTCTCCC
DNA 2: TGGTGGCTACGACGGGATT
B17: UCUGAGC (DNA:RNA)
RNA: B1 RNA with A25U, U26C, G27U, C30G, U31C
DNA 1: CAATCTGAATTCCGGTCTCCC
DNA 2: TGGTGGCTACGACGGGATT
B18: ACCCACA (DNA:RNA)
RNA: B1 RNA with U26C, G27C, G28C, U31A
DNA 1: CAATCTGAATTCCGGTCTCCC
DNA 2: TGGTGGCTACGACGGGATT
B19: GUACACC (DNA:RNA)
RNA: B1 RNA with A25G, G27A, G28C, U31C
DNA 1: CAATCTGAATTCCGGTCTCCC
DNA 2: TGGTGGCTACGACGGGATT
B20: GGCUUGG (DNA:RNA)
RNA: GGGAGACCGGAAUUCAGAUUGUCCGGCUUGGUUAAAUCCCGUCGUAGCCACCA
DNA 1: CAATCTGAATTCCGGTCTCCC
DNA 2: TGGTGGCTACGACGGGATT
B21: CGGUGAU (DNA:RNA)
RNA: B1 RNA with A25C, U26G, G28U, A29G, C30A
DNA 1: CAATCTGAATTCCGGTCTCCC
DNA 2: TGGTGGCTACGACGGGATT
B22: UUUUCCU (DNA:RNA)
RNA: B1 RNA with A25U, G27U, G28U, A29C
DNA 1: CAATCTGAATTCCGGTCTCCC
DNA 2: TGGTGGCTACGACGGGATT
B23: AACGUCG (DNA:RNA)
RNA: B1 RNA with U26A, G27C, A29U, U31G
DNA 1: CAATCTGAATTCCGGTCTCCC
DNA 2: TGGTGGCTACGACGGGATT
B24: CAGCUUA (DNA:RNA)
RNA: B1 RNA with A25C, U26A, G28C, A29U, C30U, U31A
DNA 1: CAATCTGAATTCCGGTCTCCC
DNA 2: TGGTGGCTACGACGGGATT
B25: GGAAAAG (DNA:RNA)
RNA: B20 RNA with C27A, U28A, U29A, G30A
DNA 1: CAATCTGAATTCCGGTCTCCC
DNA 2: TGGTGGCTACGACGGGATT
B26: CAUCAGU (DNA:RNA)
RNA: B1 RNA with A25C, U26A, G27U, G28C, C30G
DNA 1: CAATCTGAATTCCGGTCTCCC
DNA 2: TGGTGGCTACGACGGGATT
B27: GUUACCG (DNA:RNA)
RNA: B1 RNA with A25G, G27U, G28A, A29C, U31G
DNA 1: CAATCTGAATTCCGGTCTCCC
DNA 2: TGGTGGCTACGACGGGATT
B28: UUAACAU (DNA:RNA)
RNA: B1 RNA with A25U, G27A, G28A, A29C, C30A
DNA 1: CAATCTGAATTCCGGTCTCCC
DNA 2: TGGTGGCTACGACGGGATT
B29: CUUGCAG (DNA:RNA)
RNA: B1 RNA with A25C, G27U, A29C, C30A, U31G
DNA 1: CAATCTGAATTCCGGTCTCCC
DNA 2: TGGTGGCTACGACGGGATT
B30: CCUUCUC (DNA:RNA)
RNA: B20 RNA with G25C, G26C, C27U, U29C, G30U, G31C
DNA 1: CAATCTGAATTCCGGTCTCCC
DNA 2: TGGTGGCTACGACGGGATT
B31: AAGCGUG (DNA:RNA)
RNA: B1 RNA with U26A, G28C, A29G, C30U, U31G
DNA 1: CAATCTGAATTCCGGTCTCCC
DNA 2: TGGTGGCTACGACGGGATT

Positions count from the first letter of the chain named. The list shows a part of the results.

In the assay the target is T1, RBFOX1 RRM. The assay can be described thus: EMSA; HiTS-Eq, 1 nM pool, 10 min; buffer printed only for the single-RNA assays: 10 mM Tris pH 7.5, 150 mM NaCl, 3.4 mM EDTA, 0.001% NP-40, 30 C. The following applies: tags: His6 N-terminal (pET28a); label: 5' 32P. The gist of the method: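 A pool of RNA with 7 randomized nucleotides, 5′-radiolabelled and with DNA-annealed flanks, was equilibrated at 1 nM for 10 min in 50 µL with purified RbFox RRM, wild type or mutant, across increasing protein concentrations. Free RNA was separated by 8% native PAGE, excised, reverse-transcribed, barcoded by PCR and sequenced. Relative association constants were obtained from read-count changes of each RNA species versus the control reaction and normalised to the cognate motif.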
For B1, the binding signal was 0.00866 KA relative to UGCAUGU.

B2: the binding signal was 0.000415 KA relative to UGCAUGU.

B3: the binding signal is 0.0154 KA relative to UGCAUGU.

Turning to B4, the binding signal was 0.0103 KA relative to UGCAUGU.

With B5, the binding signal was 0.013 KA relative to UGCAUGU.

With B6, the binding signal is 0.027 KA relative to UGCAUGU.

Consider B7, for which the binding signal is 0.0146 KA relative to UGCAUGU.

Regarding B8, the binding signal was 0.0095 KA relative to UGCAUGU.

On to B9, for which the binding signal was 0.0174 KA relative to UGCAUGU.

B10: the binding signal was 0.00907 KA relative to UGCAUGU.

With B11, the binding signal was 0.0075 KA relative to UGCAUGU.

B12: the binding signal is 0.000546 KA relative to UGCAUGU.

For B13, the binding signal is 0.00304 KA relative to UGCAUGU.

As for B14, the binding signal is 0.00248 KA relative to UGCAUGU.

As for B15, the binding signal was 0.0078 KA relative to UGCAUGU.

For B16, the binding signal was 0.00186 KA relative to UGCAUGU.

Consider B17, for which the binding signal was 0.0172 KA relative to UGCAUGU.

In the case of B18, the binding signal is 0.000933 KA relative to UGCAUGU.

In the case of B19, the binding signal was 0.00405 KA relative to UGCAUGU.

As to B20, the binding signal is 0.0242 KA relative to UGCAUGU.

Regarding B21, the binding signal was 0.0121 KA relative to UGCAUGU.

Take B22: the binding signal is 0.0103 KA relative to UGCAUGU.

In the case of B23, the binding signal is 0.00665 KA relative to UGCAUGU.

With B24, the binding signal is 0.00217 KA relative to UGCAUGU.

As for B25, the binding signal was 0.0116 KA relative to UGCAUGU.

In the case of B26, the binding signal is 0.00703 KA relative to UGCAUGU.

On to B27, for which the binding signal was 0.0115 KA relative to UGCAUGU.

Take B28: the binding signal is 0.000663 KA relative to UGCAUGU.

On to B29, for which the binding signal is 0.0118 KA relative to UGCAUGU.

With B30, the binding signal was 0.00669 KA relative to UGCAUGU.

As to B31, the binding signal is 0.0169 KA relative to UGCAUGU.
